# Data published in the supplement of paper PMC10037445.
# “And” between values parts separate entries of the source, which are not always exact repeats. Equal values may be shown once. In all, about 2,900 compounds were measured (“NF-kB SEAP reporter activity, fold change vs agonist alone”: median about 0.99, highest 2% from about 2.6 on). This is one part of the list.
# Legend:
# [1] = system: RAW-Dual; assay: NF-kB SEAP reporter activity, fold change vs agonist alone; higher = enhanced NF-kB activity
# Summary of the method: (§1)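 Reporter activity is given as fold change relative to agonist-alone wells. To measure it, 50 nL of library stock was pin-tooled onto RAW-Dual macrophages (50,000 cells/well, DMEM, 384-well plates), a PRR agonist followed 1 h later, and cells stayed at 37 °C, 5% CO2. Twenty hours on, supernatant was assayed for IRF (QuantiLuc luminescence) and NF-κB (QuantiBlue, 620 nm absorbance), and wells under 70% of agonist-control IncuCyte confluency in both mask sets were marked cytotoxic.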
# [2] = system: RAW-Dual; assay: NF-kB SEAP reporter activity, fold change vs agonist alone; cytotoxicity flag (confluency mask): cytotoxic (confluency <70% of control); higher = enhanced NF-kB activity
# Summary of the method: as §1
# [3] = system: RAW-Dual; assay: NF-kB SEAP reporter activity, fold change vs agonist alone; cytotoxicity flag (confluency mask): not cytotoxic; higher = enhanced NF-kB activity
# Summary of the method: as §1
# [4] = library stock concentration (final ~1000-fold dilution): 10 mM, cytotoxicity flag (confluency mask): cytotoxic (confluency <70% of control), agonist: Imiquimod (TLR7) […]
# [5] = library stock concentration (final ~1000-fold dilution): 10 mM, cytotoxicity flag (confluency mask): cytotoxic (confluency <70% of control), agonist: MPLA (TLR4) […]
# [6] = agonist: ODN 1826 (TLR9) 0.5 ug/mL
# [7] = agonist: Pam2CSK4 (TLR2/6) 0.1 ug/mL
# [8] = agonist: Pam3CSK4 (TLR2/1) 0.1 ug/mL
# [9] = library stock concentration (final ~1000-fold dilution): 10 mM, cytotoxicity flag (confluency mask): not cytotoxic, agonist: Imiquimod (TLR7) […]
# [10] = library stock concentration (final ~1000-fold dilution): 10 mM, cytotoxicity flag (confluency mask): not cytotoxic, agonist: MPLA (TLR4) […]
smiles,measurement,setting,value
O=C(NC(NC(=S)Nc1ccc(F)c([N+](=O)[O-])c1)C(Cl)(Cl)Cl)C(c1ccccc1)c1ccccc1 (centres undefined),NF-kB SEAP reporter activity,[1]; [4],0.707
same,NF-kB SEAP reporter activity,[1]; [5],0.521
O=C(NC(NC(=S)Nc1ccc(F)c([N+](=O)[O-])c1)C(Cl)(Cl)Cl)C(c1ccccc1)c1ccccc1 (centres undefined) (library stock concentration (final ~1000-fold dilution): 10 mM),NF-kB SEAP reporter activity,[2]; agonist: LPS (TLR4) 0.1 ug/mL,0.182
same,NF-kB SEAP reporter activity,[2]; [6],0.493
same,NF-kB SEAP reporter activity,[2]; [7],0.146
same,NF-kB SEAP reporter activity,[2]; [8],0.135
COc1cc(OC)c(/C=C2/C(=O)Nc3ccccc32)c(OC)c1 (library stock concentration (final ~1000-fold dilution): 10 mM),NF-kB SEAP reporter activity,[3]; agonist: LPS (TLR4) 0.1 ug/mL,3.21
same,NF-kB SEAP reporter activity,[3]; [6],2.56
same,NF-kB SEAP reporter activity,[3]; [7],1.33
same,NF-kB SEAP reporter activity,[3]; [8],1.92
COc1cc(OC)c(/C=C2/C(=O)Nc3ccccc32)c(OC)c1,NF-kB SEAP reporter activity,[1]; [9],1.62
same,NF-kB SEAP reporter activity,[1]; [10],1.67
COC1=C2CC(C)CC(OC)C(O)C(C)/C=C(\C)C(OC(N)=O)C(OC)/C=C/C=C(\C)C(=O)NC(=CC1=O)C2=O (centres undefined) (library stock concentration (final ~1000-fold dilution): 10 mM),NF-kB SEAP reporter activity,[2]; agonist: LPS (TLR4) 0.1 ug/mL,0.227
same,NF-kB SEAP reporter activity,[2]; [6],0.237
same,NF-kB SEAP reporter activity,[2]; [7],0.13
same,NF-kB SEAP reporter activity,[2]; [8],0.136
COC1=C2CC(C)CC(OC)C(O)C(C)/C=C(\C)C(OC(N)=O)C(OC)/C=C/C=C(\C)C(=O)NC(=CC1=O)C2=O (centres undefined),NF-kB SEAP reporter activity,[1]; [4],0.408
same,NF-kB SEAP reporter activity,[1]; [5],0.395
CC1OC(OC2C(Oc3cc(O)c4c(c3)OC(c3ccc(O)cc3)CC4=O)OC(CO)C(O)C2O)C(O)C(O)C1O (centres undefined),NF-kB SEAP reporter activity,[1]; [9],0.993
same,NF-kB SEAP reporter activity,[1]; [10],1.05
CC1OC(OC2C(Oc3cc(O)c4c(c3)OC(c3ccc(O)cc3)CC4=O)OC(CO)C(O)C2O)C(O)C(O)C1O (centres undefined) (library stock concentration (final ~1000-fold dilution): 10 mM),NF-kB SEAP reporter activity,[3]; agonist: LPS (TLR4) 0.1 ug/mL,0.935
same,NF-kB SEAP reporter activity,[3]; [6],1.04
same,NF-kB SEAP reporter activity,[3]; [7],1.17
same,NF-kB SEAP reporter activity,[3]; [8],1.13
Cn1cc(C2=C(c3ccc(Cl)cc3Cl)C(=O)NC2=O)c2ccccc21,NF-kB SEAP reporter activity,[1]; [9],1.58
same,NF-kB SEAP reporter activity,[1]; [10],1.99
Cn1cc(C2=C(c3ccc(Cl)cc3Cl)C(=O)NC2=O)c2ccccc21 (library stock concentration (final ~1000-fold dilution): 10 mM),NF-kB SEAP reporter activity,[3]; agonist: LPS (TLR4) 0.1 ug/mL,3.23
same,NF-kB SEAP reporter activity,[3]; [6],2.04
same,NF-kB SEAP reporter activity,[3]; [7],1.49
same,NF-kB SEAP reporter activity,[3]; [8],2.34
O=C1Nc2cc(Br)ccc2/C1=C1/Nc2ccccc2/C1=N\O (library stock concentration (final ~1000-fold dilution): 10 mM),NF-kB SEAP reporter activity,[2]; agonist: LPS (TLR4) 0.1 ug/mL,0.459
same,NF-kB SEAP reporter activity,[2]; [6],1.39
same,NF-kB SEAP reporter activity,[2]; [7],0.695
same,NF-kB SEAP reporter activity,[2]; [8],0.239
O=C1Nc2cc(Br)ccc2/C1=C1/Nc2ccccc2/C1=N\O,NF-kB SEAP reporter activity,[1]; [4],1.24
same,NF-kB SEAP reporter activity,[1]; [5],0.94
Cc1ccc(-c2n[nH]c3c2C(c2cccc(O)c2)N(c2ccc(C(=O)O)cc2)C3=O)cc1 (centres undefined),NF-kB SEAP reporter activity,[1]; [9],0.889
same,NF-kB SEAP reporter activity,[1]; [10],1.06
Cc1ccc(-c2n[nH]c3c2C(c2cccc(O)c2)N(c2ccc(C(=O)O)cc2)C3=O)cc1 (centres undefined) (library stock concentration (final ~1000-fold dilution): 10 mM),NF-kB SEAP reporter activity,[3]; agonist: LPS (TLR4) 0.1 ug/mL,1.15
same,NF-kB SEAP reporter activity,[3]; [6],0.926
same,NF-kB SEAP reporter activity,[3]; [7],1.12
same,NF-kB SEAP reporter activity,[3]; [8],0.864
CCOc1ccc2ccccc2c1C(=O)NC1C(=O)N2C1SC(C)(C)C2C(=O)O (centres undefined),NF-kB SEAP reporter activity,[1]; [9],0.912
same,NF-kB SEAP reporter activity,[1]; [10],1.07
CCOc1ccc2ccccc2c1C(=O)NC1C(=O)N2C1SC(C)(C)C2C(=O)O (centres undefined) (library stock concentration (final ~1000-fold dilution): 10 mM),NF-kB SEAP reporter activity,[3]; agonist: LPS (TLR4) 0.1 ug/mL,1.19
same,NF-kB SEAP reporter activity,[3]; [6],0.957
same,NF-kB SEAP reporter activity,[3]; [7],1.15
same,NF-kB SEAP reporter activity,[3]; [8],0.975
O=C(N/N=C/c1ccc([N+](=O)[O-])o1)c1ccc(O)cc1,NF-kB SEAP reporter activity,[1]; [4],2.58
same,NF-kB SEAP reporter activity,[1]; [5],2.03
O=C(N/N=C/c1ccc([N+](=O)[O-])o1)c1ccc(O)cc1 (library stock concentration (final ~1000-fold dilution): 10 mM),NF-kB SEAP reporter activity,[2]; agonist: LPS (TLR4) 0.1 ug/mL,3.8
same,NF-kB SEAP reporter activity,[2]; [6],1.64
same,NF-kB SEAP reporter activity,[2]; [7],1.38
same,NF-kB SEAP reporter activity,[2]; [8],1.55
Cc1cc(NC(=O)c2cccc(NC(=O)/C=C/CN(C)C)c2)ccc1Nc1nccc(-c2cccnc2)n1,NF-kB SEAP reporter activity,[1]; [10],0.65
Cc1cc(NC(=O)c2cccc(NC(=O)/C=C/CN(C)C)c2)ccc1Nc1nccc(-c2cccnc2)n1 (library stock concentration (final ~1000-fold dilution): 10 mM),NF-kB SEAP reporter activity,[3]; agonist: LPS (TLR4) 0.1 ug/mL,0.403
same,NF-kB SEAP reporter activity,[3]; [6],0.183
same,NF-kB SEAP reporter activity,[3]; [7],0.524
same,NF-kB SEAP reporter activity,[3]; [8],0.284
CCOc1cc2ncc(C#N)c(Nc3ccc(OCc4ccccn4)c(Cl)c3)c2cc1NC(=O)/C=C/CN(C)C (library stock concentration (final ~1000-fold dilution): 2 mM),NF-kB SEAP reporter activity,[3]; agonist: LPS (TLR4) 0.1 ug/mL,0.312
same,NF-kB SEAP reporter activity,[3]; [6],0.82
same,NF-kB SEAP reporter activity,[3]; [7],0.47
same,NF-kB SEAP reporter activity,[3]; [8],0.699
CCOc1cc2ncc(C#N)c(Nc3ccc(OCc4ccccn4)c(Cl)c3)c2cc1NC(=O)/C=C/CN(C)C,NF-kB SEAP reporter activity,"[1]; library stock concentration (final ~1000-fold dilution): 2 mM, cytotoxicity flag (confluency mask): not cytotoxic, agonist: Imiquimod (TLR7) […]",0.936
same,NF-kB SEAP reporter activity,"[1]; library stock concentration (final ~1000-fold dilution): 2 mM, cytotoxicity flag (confluency mask): not cytotoxic, agonist: MPLA (TLR4) […]",0.339
Cc1ccc(S(=O)(=O)O)cc1.NC(=O)c1cccc2cn(-c3ccc(C4CCCNC4)cc3)nc12 (centres undefined) (library stock concentration (final ~1000-fold dilution): 10 mM),NF-kB SEAP reporter activity,[3]; agonist: LPS (TLR4) 0.1 ug/mL,1.04
same,NF-kB SEAP reporter activity,[3]; [6],0.181
same,NF-kB SEAP reporter activity,[3]; [7],1.41
same,NF-kB SEAP reporter activity,[3]; [8],1.1
Cc1ccc(S(=O)(=O)O)cc1.NC(=O)c1cccc2cn(-c3ccc(C4CCCNC4)cc3)nc12 (centres undefined),NF-kB SEAP reporter activity,[1]; [9],0.663
same,NF-kB SEAP reporter activity,[1]; [10],1.04
COc1cc2c(cc1OC)-c1cc3ccc(OC)c(OC)c3c[n+]1CC2 (library stock concentration (final ~1000-fold dilution): 10 mM),NF-kB SEAP reporter activity,[3]; agonist: LPS (TLR4) 0.1 ug/mL,1.27 and 1.09
same,NF-kB SEAP reporter activity,[3]; [6],1.01 and 0.974
same,NF-kB SEAP reporter activity,[3]; [7],1.33 and 0.684
same,NF-kB SEAP reporter activity,[3]; [8],1.13 and 0.916
CNC(=C[N+](=O)[O-])NCCSCc1ccc(CN(C)C)o1 (library stock concentration (final ~1000-fold dilution): 10 mM),NF-kB SEAP reporter activity,[3]; agonist: LPS (TLR4) 0.1 ug/mL,0.982 and 1.15
same,NF-kB SEAP reporter activity,[3]; [6],0.975 and 1.06
same,NF-kB SEAP reporter activity,[3]; [7],0.994 and 1.06
same,NF-kB SEAP reporter activity,[3]; [8],0.987 and 1.11
